Results reported in the supplement of paper PMC8728848.
The other results are listed elsewhere or left out.

Legend:
Experiment in all cases: glycan array binding signal (z-score within array); higher = stronger binding
Conditions in all cases: glycan notation: IUPAC condensed, linker removed
[1] = target: Neu5Ac(a2-6)Gal(b1-4)GlcNAc(b1-3)Gal(b1-4)GlcNAc(b1-3)Gal(b1-4)GlcNAc(b1-2)Man(a1-3)[Neu5Ac(a2-6)Gal(b1-4)GlcNAc(b1-3)Gal(b1-4)GlcNAc(b1-3)Gal(b1-4)GlcNAc(b1-2)Man(a1-6)]GalNAc
Method in brief: (§1)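 From the Consortium for Functional Glycomics database, 3228 arrays were curated, keeping only those whose protein sequence was available. Binding is given as a within-array Z-score averaged across arrays sharing a protein sequence and across linkers. Negative Z-scores can be read as non-binding.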

[2] = target: Neu5Ac(a2-6)Gal(b1-4)GlcNAc(b1-3)Gal(b1-4)GlcNAc(b1-3)GalNAc
Method in brief: as §1

[3] = target: Neu5Ac(a2-6)Gal(b1-4)GlcNAc(b1-3)Gal(b1-4)GlcNAc(b1-3)[Neu5Ac(a2-6)Gal(b1-4)GlcNAc(b1-3)Gal(b1-4)GlcNAc(b1-6)]GalNAc
Method in brief: as §1

[4] = target: Neu5Ac(a2-6)Gal(b1-4)GlcNAc(b1-3)Gal(b1-4)GlcNAc(b1-6)[Gal(b1-3)]GalNAc
Method in brief: as §1

[5] = target: Neu5Ac(a2-6)Gal(b1-4)GlcNAc(b1-3)Gal(b1-4)[Fuc(a1-3)]GlcNAc(b1-3)Gal(b1-4)[Fuc(a1-3)]GlcNAc
Method in brief: as §1

[6] = target: Neu5Ac(a2-6)Gal(b1-4)GlcNAc(b1-3)GalNAc
Method in brief: as §1

[7] = target: Neu5Ac(a2-6)Gal(b1-4)GlcNAc(b1-3)[Neu5Ac(a2-6)Gal(b1-4)GlcNAc(b1-6)]GalNAc
Method in brief: as §1

[8] = target: Neu5Ac(a2-6)Gal(b1-4)GlcNAc(b1-6)GalNAc
Method in brief: as §1

[9] = target: Neu5Ac(a2-6)Gal(b1-4)GlcNAc(b1-6)[Gal(b1-3)GlcNAc(b1-3)]Gal(b1-4)Glc
Method in brief: as §1

[10] = target: Neu5Ac(a2-6)Gal(b1-4)GlcNAc(b1-6)[Gal(b1-3)]GalNAc
Method in brief: as §1

[11] = target: Neu5Ac(a2-6)Gal(b1-4)GlcNAc6S
Method in brief: as §1

Neu5Ac(a2-6)GalNAc = target: Neu5Ac(a2-6)GalNAc
Method in brief: as §1

[12] = target: Neu5Ac(a2-6)GalNAc(b1-4)GlcNAc
Method in brief: as §1

[13] = target: Neu5Ac(a2-6)GalNAc(b1-4)GlcNAc6S
Method in brief: as §1

[14] = target: Neu5Ac(a2-6)GlcNAc(b1-4)GlcNAc
Method in brief: as §1

[15] = target: Neu5Ac(a2-6)GlcNAc(b1-4)GlcNAc(b1-4)GlcNAc
Method in brief: as §1

Neu5Ac(a2-8)Neu5Ac = target: Neu5Ac(a2-8)Neu5Ac
Method in brief: as §1

[16] = target: Neu5Ac(a2-8)Neu5Ac(a2-3)Gal(b1-3)GalNAc(b1-4)[Neu5Ac(a2-3)]Gal(b1-4)Glc
Method in brief: as §1

[17] = target: Neu5Ac(a2-8)Neu5Ac(a2-3)Gal(b1-3)GalNAc(b1-4)[Neu5Ac(a2-8)Neu5Ac(a2-3)]Gal(b1-4)Glc
Method in brief: as §1

[18] = target: Neu5Ac(a2-8)Neu5Ac(a2-3)Gal(b1-4)Glc
Method in brief: as §1

[19] = target: Neu5Ac(a2-8)Neu5Ac(a2-3)Gal(b1-4)GlcNAc
Method in brief: as §1

[20] = target: Neu5Ac(a2-8)Neu5Ac(a2-3)[Gal(b1-3)GalNAc(b1-4)]Gal(b1-4)Glc
Method in brief: as §1

[21] = target: Neu5Ac(a2-8)Neu5Ac(a2-3)[GalNAc(b1-4)]Gal(b1-4)Glc
Method in brief: as §1

[22] = target: Neu5Ac(a2-8)Neu5Ac(a2-8)Neu5Ac
Method in brief: as §1

[23] = target: Neu5Ac(a2-8)Neu5Ac(a2-8)Neu5Ac(a2-3)Gal(b1-4)Glc
Method in brief: as §1

[24] = target: Neu5Ac(a2-8)Neu5Ac(a2-8)Neu5Ac(a2-3)[Gal(b1-3)GalNAc(b1-4)]Gal(b1-4)Glc
Method in brief: as §1

[25] = target: Neu5Ac(a2-8)Neu5Ac(a2-8)Neu5Ac(a2-3)[GalNAc(b1-4)]Gal(b1-4)Glc
Method in brief: as §1

[26] = target: Neu5Ac(a2-8)Neu5Ac(a2-8)Neu5Ac(a2-8)Neu5Ac(a2-3)[GalNAc(b1-4)]Gal(b1-4)Glc
Method in brief: as §1

[27] = target: Neu5Ac(a2-8)Neu5Gc(a2-3)Gal(b1-4)GlcNAc
Method in brief: as §1

[28] = target: Neu5Ac(b2-6)Gal(b1-4)GlcNAc
Method in brief: as §1

Neu5Ac(b2-6)GalNAc = target: Neu5Ac(b2-6)GalNAc
Method in brief: as §1

[29] = target: Neu5Ac9Ac(a2-3)Gal(b1-3)GlcNAc
Method in brief: as §1

[30] = target: Neu5Ac9Ac(a2-3)Gal(b1-4)GlcNAc
Method in brief: as §1

[31] = target: Neu5Ac9Ac(a2-6)Gal(b1-4)GlcNAc
Method in brief: as §1

[32] = target: Neu5Gc(a2-3)Gal(b1-3)GlcNAc
Method in brief: as §1

[33] = target: Neu5Gc(a2-3)Gal(b1-3)[Fuc(a1-4)]GlcNAc
Method in brief: as §1

Neu5Gc(a2-3)Gal(b1-4)Glc = target: Neu5Gc(a2-3)Gal(b1-4)Glc
Method in brief: as §1

[34] = target: Neu5Gc(a2-3)Gal(b1-4)GlcNAc
Method in brief: as §1

[35] = target: Neu5Gc(a2-3)Gal(b1-4)GlcNAc(b1-3)Gal(b1-4)GlcNAc(b1-2)Man(a1-3)[Neu5Gc(a2-3)Gal(b1-4)GlcNAc(b1-3)Gal(b1-4)GlcNAc(b1-2)Man(a1-6)]Man(b1-4)GlcNAc(b1-4)GlcNAc
Method in brief: as §1

[36] = target: Neu5Gc(a2-3)Gal(b1-4)[Fuc(a1-3)]GlcNAc
Method in brief: as §1

[37] = target: Neu5Gc(a2-6)Gal(b1-4)GlcNAc
Method in brief: as §1

Neu5Gc(a2-6)GalNAc = target: Neu5Gc(a2-6)GalNAc
Method in brief: as §1

[38] = target: Neu5Gc(a2-8)Neu5Ac(a2-3)Gal(b1-4)GlcNAc
Method in brief: as §1

[39] = target: Neu5Gc(a2-8)Neu5Gc(a2-3)Gal(b1-4)GlcNAc
Method in brief: as §1

[40] = target: Neu5Gc(a2-8)Neu5Gc(a2-3)Gal(b1-4)GlcNAc(b1-3)Gal(b1-4)GlcNAc
Method in brief: as §1

[41] = target: Neu5Gc(a2-8)Neu5Gc(a2-6)Gal(b1-4)GlcNAc
Method in brief: as §1

[42] = target: Neu5Gc(b2-6)Gal(b1-4)GlcNAc
Method in brief: as §1

B1: HA-11100 (Pseudomonas aeruginosa), Q02G51_PSEAB (protein)
chain: QFNPNEIKISQQGKTTLIDQSTQRAIINWKGFDVSADEAVRFNQPGVTSSTLNRVTAGQESVIAGRISAPGQVIIYNSNGVVFSGSAKVDVGSLITTTANISDEHFRQGKLIFDQPGNPDARIVNDGSISVAEKGLAAFVAPSVANNGVINARLGTVAMAAGNAATIDLYG
Which results are given for B1?
glycan array binding signal (z-score) [1]: 3.17; glycan array binding signal (z-score) [2]: -0.208; glycan array binding signal (z-score) [3]: -0.23; glycan array binding signal (z-score) [4]: -0.286; glycan array binding signal (z-score) [5]: -0.369; glycan array binding signal (z-score) [6]: 1.24; glycan array binding signal (z-score) [7]: -0.321; glycan array binding signal (z-score) [8]: 0.24; glycan array binding signal (z-score) [9]: 0.1; glycan array binding signal (z-score) [10]: -0.027; glycan array binding signal (z-score) [11]: -0.401; glycan array binding signal (z-score) (Neu5Ac(a2-6)GalNAc): -0.112; glycan array binding signal (z-score) [12]: -0.851; glycan array binding signal (z-score) [13]: -0.012; glycan array binding signal (z-score) [14]: -0.421; glycan array binding signal (z-score) [15]: -0.181; glycan array binding signal (z-score) (Neu5Ac(a2-8)Neu5Ac): -0.498; glycan array binding signal (z-score) [16]: -0.567; glycan array binding signal (z-score) [17]: -0.444; glycan array binding signal (z-score) [18]: -0.649; glycan array binding signal (z-score) [19]: -0.312; glycan array binding signal (z-score) [20]: 0.057; glycan array binding signal (z-score) [21]: -0.281; glycan array binding signal (z-score) [22]: -0.333; glycan array binding signal (z-score) [23]: -0.262; glycan array binding signal (z-score) [24]: -0.621; glycan array binding signal (z-score) [25]: -0.213; glycan array binding signal (z-score) [26]: -0.312; glycan array binding signal (z-score) [27]: -0.589; glycan array binding signal (z-score) [28]: -0.196; glycan array binding signal (z-score) (Neu5Ac(b2-6)GalNAc): -0.167; glycan array binding signal (z-score) [29]: -0.076; glycan array binding signal (z-score) [30]: -0.238; glycan array binding signal (z-score) [31]: -0.383; glycan array binding signal (z-score) [32]: -0.495; glycan array binding signal (z-score) [33]: -0.618; glycan array binding signal (z-score) (Neu5Gc(a2-3)Gal(b1-4)Glc): -0.159; glycan array binding signal (z-score) [34]: -0.399; glycan array binding signal (z-score) [35]: -0.535; glycan array binding signal (z-score) [36]: -0.065; glycan array binding signal (z-score) [37]: -0.377; glycan array binding signal (z-score) (Neu5Gc(a2-6)GalNAc): 0.697; glycan array binding signal (z-score) [38]: -0.268; glycan array binding signal (z-score) [39]: -0.067; glycan array binding signal (z-score) [40]: -0.07; glycan array binding signal (z-score) [41]: -0.505; glycan array binding signal (z-score) [42]: -0.376
